{"source": "patent US5760092A", "about": "“Allocolchinones and uses thereof” (Brandeis University, priority 1996, dated 1998)", "key": {"[1]": {"system": "NCI-H460 non-small cell lung cancer cells", "assay": "cells", "conditions": "Homo sapiens"}, "[2]": {"system": "T-47D breast cancer cells", "assay": "cells", "conditions": "Homo sapiens, T47D; for activity at 100 µM: read-out: Percent Growth, log10 conc -4.0; for activity at 10 µM: read-out: Percent Growth, log10 conc -5.0; for activity at 1 µM: read-out: Percent Growth, log10 conc -6.0; for activity at 0.1 µM: read-out: Percent Growth, log10 conc -7.0; for activity at 0.01 µM: read-out: Percent Growth, log10 conc -8.0"}, "[3]": {"system": "NCI-H460 non-small cell lung cancer cells"}, "[4]": {"system": "T-47D breast cancer cells"}}, "note": "Where “and” joins values, the source holds several entries; their conditions need not be identical. Identical values can stand only once. Like-named read-outs stand apart in the source and are kept apart here."}
{"smiles": "COc1cc2c(c(OC)c1OC)-c1ccc(C(C)=O)cc1C(NC(C)=O)CC2", "note": "(centres unmarked)", "values": [{"measurement": "activity at 100 µM", "setting": "[1]; NCI-H460, read-out: Percent Growth, log10 conc -4.0", "value": 0, "unit": "%"}, {"measurement": "activity at 10 µM", "setting": "[1]; NCI-H460, read-out: Percent Growth, log10 conc -5.0", "value": 2, "unit": "%"}, {"measurement": "activity at 0.001 µM", "setting": "[1]; NCI-H460, read-out: Percent Growth, log10 conc -9.0", "value": 83, "unit": "%"}, {"measurement": "activity at 0.0001 µM", "setting": "[1]; NCI-H460, read-out: Percent Growth, log10 conc -10.0", "value": 103, "unit": "%"}, {"measurement": "activity at 100 µM", "setting": "[2]", "value": 72, "unit": "%"}, {"measurement": "activity at 10 µM", "setting": "[2]", "value": 70, "unit": "%"}, {"measurement": "activity at 1 µM", "setting": "[2]", "value": 62, "unit": "%"}, {"measurement": "activity at 0.1 µM", "setting": "[2]", "value": 65, "unit": "%"}, {"measurement": "activity at 0.01 µM", "setting": "[2]", "value": 60, "unit": "%"}, {"measurement": "activity at 0.001 µM", "setting": "[2]; read-out: Percent Growth, log10 conc -9.0", "value": 54, "unit": "%"}, {"measurement": "activity at 0.0001 µM", "setting": "[2]; read-out: Percent Growth, log10 conc -10.0", "value": 96, "unit": "%"}, {"measurement": "Percent Growth", "setting": "[3]; log10 conc -7.0, 0.1 µM", "value": 16, "unit": "%"}, {"measurement": "Percent Growth", "setting": "[4]; log10 conc -7.0, 0.1 µM", "value": 81, "unit": "%"}, {"measurement": "Percent Growth", "setting": "[4]; log10 conc -8.0, 0.01 µM", "value": 47, "unit": "%"}]}
{"smiles": "CCCC(=O)NC1CCc2cc(OC)c(OC)c(OC)c2-c2ccc(C(C)=O)cc21", "note": "(centres unmarked)", "values": [{"measurement": "CC50", "setting": "[2]; read-out: LC50", "value": "> 100", "unit": "µM"}, {"measurement": "activity at 100 µM", "setting": "[2]", "value": "69% and 61%"}, {"measurement": "activity at 10 µM", "setting": "[2]", "value": "65% and 79%"}, {"measurement": "activity at 1 µM", "setting": "[2]", "value": 80, "unit": "%"}, {"measurement": "activity at 0.1 µM", "setting": "[2]", "value": 73, "unit": "%"}, {"measurement": "activity at 0.01 µM", "setting": "[2]", "value": 36, "unit": "%"}, {"measurement": "Percent Growth", "setting": "[3]; log10 conc -4.0, 100 µM", "value": "0% and 1%"}, {"measurement": "Percent Growth", "setting": "[3]; log10 conc -5.0, 10 µM", "value": "2% and 0%"}, {"measurement": "Percent Growth", "setting": "[3]; log10 conc -6.0, 1 µM", "value": "1% and 0%"}, {"measurement": "Percent Growth", "setting": "[3]; log10 conc -7.0, 0.1 µM", "value": "-3% and 2%"}, {"measurement": "Percent Growth", "setting": "[4]; log10 conc -6.0, 1 µM", "value": 75, "unit": "%"}, {"measurement": "Percent Growth", "setting": "[4]; log10 conc -7.0, 0.1 µM", "value": 82, "unit": "%"}]}
